# Measured values published in PubChem BioAssay AID504845 (National Center for Advancing Translational Sciences (NCATS), 2011).
# Values joined by “and” are separate entries in the source; they are usually repeats but may differ in a detail not shown here. Equal values may be shown once. About 150 (0.038%) of roughly 390,000 compounds were called active. The shares of active, inactive and inconclusive entries below differ from those in the screen. The call rests on the fitted dose curve; in most records, active means well fitted inhibition curve with a large enough effect; inconclusive means small, poorly fitted or top-dose-only effect; inactive means no such curve, though single readings can be large or run the other way. Potencies of inconclusive entries are doubtful fits and often do not repeat.
# Target: Regulator of G-protein signaling 4 (Homo sapiens) (UniProt P49798)
# UniProt P49798, sequence (P49798 whole entry, looked up): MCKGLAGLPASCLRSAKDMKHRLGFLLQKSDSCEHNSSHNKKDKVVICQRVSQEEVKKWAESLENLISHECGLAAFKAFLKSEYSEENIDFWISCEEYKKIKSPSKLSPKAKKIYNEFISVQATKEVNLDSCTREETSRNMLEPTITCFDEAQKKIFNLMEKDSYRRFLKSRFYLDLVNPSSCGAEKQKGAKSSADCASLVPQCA
# Assay: Inhibitors of Regulator of G Protein Signaling (RGS) 4: qHTS; further: nearly all actives have a fitted effect of over 75% in size
# Conditions: Transcreener GDP fluorescence polarization, RGS4-accelerated GTP hydrolysis; series mostly up to 114 µM
# How it was run: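 MLSMR compounds (23 nl, pin-transferred) preincubated 10 min at room temperature with a 500nM (2x) first reagent, then RGS4 at 900nM (2x) plus Transcreener GDP mix added; fluorescence polarization (620/688 nm) read before and after 90 min at 30 °C.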
# On the % scale 0 is the no-effect control and ±100 the full control effect; potency means the concentration at half of the fitted maximal effect; tags describe the fitted curve by direction and shape.
Structure (SMILES),Potency,"activity change, negative = inhibition"
Cc1[nH]c2ccccc2c1Cc1n[nH]c(=S)n1C,"inconclusive: 79.4 µM [inhibitor, single point]",–
CC1(OC(=O)c2cccs2)C(=O)C=C2C=C3CCCN3C=C2C1=O (stereo unspecified),"inconclusive: 31.6 µM [inhibitor, full curve, poor fit]",–
CC1(C)Cc2c(C#N)c(N3CCN(C(=O)c4ccco4)CC3)nc(-c3ccco3)c2CS1,"inconclusive: 79.4 µM [inhibitor, partial curve, poor fit]",–
N#C/C(=C\c1ccc(Sc2nc3ccccc3[nH]2)o1)c1ccccc1,"inconclusive: 89.1 µM [inhibitor, single point]",–
O=C(CSc1ncn(-c2ccccc2)n1)Nc1nc2c(s1)CCCC2,inactive,–
O=C(CSc1nc(NS(=O)(=O)c2ccccc2)cc(=O)[nH]1)Nc1ccc(Cl)cc1,"inconclusive: 35.5 µM [inhibitor, full curve, poor fit]",–
CCc1nc(SCC(=O)NNC(=O)c2ccc(OC)cc2)c2ccccc2n1,"inconclusive: 89.1 µM [inhibitor, single point]",–
CCCN(CCC)Cc1c(C(=O)N/N=C/C(C)=C\c2ccccc2)nnn1-c1nonc1N,inactive,–
COc1cccc(NC(=O)CSc2nnc(COc3ccc4c(c3)CCCC4)o2)c1,"inconclusive: 89.1 µM [inhibitor, single point]",–
COc1ccccc1C(=O)NC(=S)Nc1cccnc1Cl,"inconclusive: 20 µM [inhibitor, full curve, poor fit]",–
CN(C)S(=O)(=O)c1ccc2c(c1)N(CC(=O)N1CCCCC1)CCS2,inactive,–
Cn1cc(S(=O)(=O)c2ccccc2)c(=O)c2cc(F)c(N3CCN(c4ccc(F)cc4)CC3)cc21,inactive,–
CC(C)NC(=O)N(C)C[C@H]1Oc2ccc(NC(=O)C3CCCCC3)cc2C(=O)N([C@H](C)CO)C[C@@H]1C,"inconclusive: 100 µM [inhibitor, single point]",–
O=C(NCCN1CCCCC1)Nc1ccc(Br)cc1,inactive,–
C#CCOCCOCCOCCNc1nc(N2CCN(C(=O)CCCCCCCCCCNC(=O)Cn3cc(C[C@@H](C)O)nn3)CC2)nc(N2CCN(C(=O)CCCCCCCCCCNC(=O)[C@H](CCCCN)n3cc(CCCC(=O)O)nn3)CC2)n1,"inconclusive: 28.2 µM [inhibitor, full curve, poor fit]",–
Oc1ccc(CN2CCc3ccccc3C2)c2cccnc12,"inconclusive: 89.1 µM [inhibitor, single point]",–
O=C(c1ccc([N+](=O)[O-])s1)N1CCCc2ccccc21,inactive,–
O=C(CBr)c1ccc([N+](=O)[O-])c(CS(=O)(=O)c2ccc(Cl)cc2)c1,"inconclusive: 39.8 µM [inhibitor, partial curve, poor fit]",–
COc1ccc(-c2nnc(NC(=O)c3ccc(S(=O)(=O)N4COCC4(C)C)cc3)o2)cc1,–,inactive: -6.63% [at 11.4 µM]
COc1ccc(NC(=O)c2csc3c2CCCC3)cc1,inactive,–
O=C(NC1CCCC1)C(c1ccccn1)N(C(=O)c1csnn1)C1CCCCC1 (stereo unspecified),"inconclusive: 50.1 µM [inhibitor, partial curve, poor fit]",–

Structure (SMILES),Potency,"activity change, negative = inhibition"
Nc1c(-c2ccccc2)c(CSc2nc3ccccc3[nH]2)nn1-c1ccc(C(=O)O)cc1,"inconclusive: 50.1 µM [inhibitor, partial curve, poor fit]",–
O=S(=O)(c1ccccc1Cl)N1CCC(Cc2ccccc2)CC1,inactive,–
CCOC(=O)c1c(C)nc2sc3c(=O)n(-c4ccc(C)cc4)cnc3c2c1-c1ccc(OC)cc1,inactive,–
CCC(=O)Nc1ccc(N2CCOCC2)c(S(=O)(=O)Nc2ccc(Cl)cc2)c1,"inconclusive: 10 µM [inhibitor, full curve, poor fit]",–
CN(Cc1cnn(C)c1)Cc1nc(COc2ccccc2)no1,"inconclusive: 89.1 µM [inhibitor, single point]",–
CC(/C=C1\SC(=S)N(c2ccc(C(=O)O)cc2)C1=O)=C\c1ccccc1,"inconclusive: 50.1 µM [inhibitor, partial curve, poor fit]",–
Cc1oc(-c2cccc(Cl)c2)[n+]([O-])c1C,"inconclusive: 79.4 µM [inhibitor, single point]",–
Cc1cc2nc3c(=O)[nH]c(=O)[nH]c3nc2c([N+](=O)[O-])c1N,"inconclusive: 56.2 µM [inhibitor, partial curve, poor fit]",–
CCOC(=O)c1cc(C#N)c(N2CCN(C(=O)c3ccccc3)CC2)nc1C(F)(F)F,inactive,–
O=C(N/N=C/c1cccc(F)c1)c1ccc(Cl)cc1,inactive,–
COc1cccc(C2CC(c3ccccc3)=NN2S(=O)(=O)c2ccccc2)c1OC (stereo unspecified),"inconclusive: 79.4 µM [inhibitor, partial curve, poor fit]",–
OCCNCCOCCOc1ccccc1-c1ccccc1,inactive,–
O=C(COc1ccc2c(c1)oc(=O)c1ccccc12)NCCCN1CCOCC1,"inconclusive: 112 µM [inhibitor, partial curve, poor fit]",–
Cc1cn(C)c(CC(=O)NCc2ccc(F)cc2)c1C(=O)O,"inconclusive: 79.4 µM [inhibitor, single point]",–
Cc1cccn2c(=O)c3cc(C#N)c(=NC(=O)c4ccccc4)n(Cc4ccco4)c3nc12,"inconclusive: 17.8 µM [inhibitor, full curve, poor fit] and inconclusive: 44.7 µM [inhibitor, partial curve, poor fit]",–
O=C(OCc1nnc(-c2ccc([N+](=O)[O-])cc2)o1)C1CC(=O)N(CCc2ccccc2)C1 (stereo unspecified),"inconclusive: 89.1 µM [inhibitor, single point]",–
O=[N+]([O-])c1ccc(/C=N/N2CCN(Cc3ccccc3)CC2)cc1,inactive,–
COc1ccc2nc3sc(C(=O)Nc4cc(Cl)c(OC)cc4OC)cc3cc2c1,inactive,–
S=C(Nc1ccc(N2CCOCC2)cc1)Nc1ccc2nc(-c3ccco3)c(-c3ccco3)nc2c1,"inconclusive: 89.1 µM [inhibitor, single point]",–
Cc1ccc(Cl)cc1N1CCN(CCCNc2ncnc3onc(-c4ccc(F)cc4)c23)CC1,inactive,–
